Data as given in a collection of fitness landscapes (doi:10.1016/j.celrep.2020.107928).
In all, about 81,000 sequences were measured (“one-hybrid fitness for binding NBS DNA”: median about -0.1, highest 2% from about 0.36 on). This is one part of the list.

B1: Caulobacter ParB omega fusion; a variant is named by its letters at X, in order, B8GW30 (parent)
chain: MESVVVGEPGMSEGRRGLGRGLSALLGEVDAAPAQAPGEQLGGSREAPIEILQRNPDQPRRTFREEDLEDLSNSIREKGVLQPILVRPSPDTAGEYQIVAGERAWRAAQRAGLKTVPIMVRELDDLAVLEIGIIENVQRADLNVLEEALSYKVLMEKFERTQENIAQTIGKSXSHVANXMRLLXLPDEVQSYLVSGELTAXHARAIAAAADPVALAKQIIEGGLSVRETEALARKAPNLSAGKSKGGRPPRVKDTDTQALESDLSSVLGLDVSIDHRGSTGTLTITYATLEQLDDLCNRLTRGI

Variants of: B1
Experiment: one-hybrid fitness for binding NBS DNA (the Noc-binding site; scaled: cognate 1, non-cognate 0); higher = stronger binding
Details: with NBS DNA site
Method in brief: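 Values were rescaled so that cognate is 1 and non-cognate is 0. Each is a fitness, the log change in a variant's read ratio to wild type from Illumina reads of plasmids before and after selection, with three replicate libraries pooled and variants under 10 reads dropped. Selection of the Caulobacter ParB libraries, four specificity codons randomised, used E. coli USO with a HIS3 reporter, site 19 bp from the promoter, on M9-minus-histidine with 0.1 mM IPTG and 5 mM 3-AT for 48 hours at 37°C.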

Variant | one-hybrid fitness for binding NBS DNA
CRMC | ≤ 0.2
LTRC | ≤ 0.2
LSDW | ≤ 0.2
QHPI | ≤ 0.2
PDWN | ≤ 0.2
YRNL | ≤ 0.2
FFAI | ≤ 0.2
WMTT | ≤ 0.2
FTRL | ≤ 0.2
RCGS | 0.482
QLQD | ≤ 0.2
GHLL | ≤ 0.2
GAAR | ≤ 0.2
QSMW | ≤ 0.2
NYKR | ≤ 0.2
NAVG | ≤ 0.2
CDRS | ≤ 0.2
STAA | ≤ 0.2
RNTD | ≤ 0.2
QPPF | ≤ 0.2
ARSM | ≤ 0.2
FGDW | ≤ 0.2
EWCS | ≤ 0.2
APRT | ≤ 0.2
ANHM | ≤ 0.2

Variant | one-hybrid fitness for binding NBS DNA
TVDM | ≤ 0.2
CTDA | ≤ 0.2
HLQA | ≤ 0.2
GGTW | ≤ 0.2
QIWL | ≤ 0.2
HKRK | ≤ 0.2
QFGP | ≤ 0.2
EVSD | ≤ 0.2
AFRK | ≤ 0.2
WLMR | ≤ 0.2
KTKY | ≤ 0.2
YSYS | ≤ 0.2
EHFG | ≤ 0.2
DFVD | ≤ 0.2
EMQE | ≤ 0.2
ARYN | ≤ 0.2
QTNT | 0.71
MMPH | ≤ 0.2
WSCT | ≤ 0.2
LVLP | ≤ 0.2
RINS | 0.445
TMSY | ≤ 0.2
KDQS | ≤ 0.2
MLPN | ≤ 0.2
SILI | ≤ 0.2

Variant | one-hybrid fitness for binding NBS DNA
YHYL | ≤ 0.2
LSLQ | ≤ 0.2
MRTF | ≤ 0.2
ECAV | ≤ 0.2
AVWG | ≤ 0.2
YTLG | ≤ 0.2
VSQA | ≤ 0.2
LYVR | ≤ 0.2
MRRG | ≤ 0.2
MSVC | ≤ 0.2
TRLW | ≤ 0.2
TTSW | ≤ 0.2
YSMV | ≤ 0.2
RRVP | ≤ 0.2
HMCR | ≤ 0.2
FNDN | ≤ 0.2
QNSI | ≤ 0.2
VKKA | ≤ 0.2
MHQE | ≤ 0.2
RQYE | ≤ 0.2
NRSK | ≤ 0.2
RNWM | ≤ 0.2
ETCS | ≤ 0.2
DFAG | ≤ 0.2
FMND | ≤ 0.2

Variant | one-hybrid fitness for binding NBS DNA
YNQG | ≤ 0.2
WIHT | ≤ 0.2
LKSE | ≤ 0.2
NHEC | ≤ 0.2
SAQF | ≤ 0.2
LTDN | ≤ 0.2
AYSG | ≤ 0.2
LVPG | ≤ 0.2
EDFG | ≤ 0.2
RPPT | ≤ 0.2
LTHC | ≤ 0.2
YILM | ≤ 0.2
QCAE | ≤ 0.2
RCEY | ≤ 0.2
RTSV | ≤ 0.2
NLPD | ≤ 0.2
QVCG | ≤ 0.2
DHER | ≤ 0.2
PYHS | ≤ 0.2
DACW | ≤ 0.2
INIL | ≤ 0.2
QHSK | ≤ 0.2
RKRD | ≤ 0.2
